Screen size: about 310,000 compounds; about 14,000 (4.5%) showed an effect of 50% or more. Effects have a minus sign here. This is one part of the list.
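Note: peak tail current of the secondary pulse compared with the same well before compound.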

The target of the assay is human ether-à-go-go-related gene (hERG) potassium channel (human, UniProt Q12809). Description: primary screen, population patch clamp on CHO cells stably expressing hERG.
human ether-à-go-go-related gene (hERG) potassium channel, sequence (Q12809 whole entry, looked up): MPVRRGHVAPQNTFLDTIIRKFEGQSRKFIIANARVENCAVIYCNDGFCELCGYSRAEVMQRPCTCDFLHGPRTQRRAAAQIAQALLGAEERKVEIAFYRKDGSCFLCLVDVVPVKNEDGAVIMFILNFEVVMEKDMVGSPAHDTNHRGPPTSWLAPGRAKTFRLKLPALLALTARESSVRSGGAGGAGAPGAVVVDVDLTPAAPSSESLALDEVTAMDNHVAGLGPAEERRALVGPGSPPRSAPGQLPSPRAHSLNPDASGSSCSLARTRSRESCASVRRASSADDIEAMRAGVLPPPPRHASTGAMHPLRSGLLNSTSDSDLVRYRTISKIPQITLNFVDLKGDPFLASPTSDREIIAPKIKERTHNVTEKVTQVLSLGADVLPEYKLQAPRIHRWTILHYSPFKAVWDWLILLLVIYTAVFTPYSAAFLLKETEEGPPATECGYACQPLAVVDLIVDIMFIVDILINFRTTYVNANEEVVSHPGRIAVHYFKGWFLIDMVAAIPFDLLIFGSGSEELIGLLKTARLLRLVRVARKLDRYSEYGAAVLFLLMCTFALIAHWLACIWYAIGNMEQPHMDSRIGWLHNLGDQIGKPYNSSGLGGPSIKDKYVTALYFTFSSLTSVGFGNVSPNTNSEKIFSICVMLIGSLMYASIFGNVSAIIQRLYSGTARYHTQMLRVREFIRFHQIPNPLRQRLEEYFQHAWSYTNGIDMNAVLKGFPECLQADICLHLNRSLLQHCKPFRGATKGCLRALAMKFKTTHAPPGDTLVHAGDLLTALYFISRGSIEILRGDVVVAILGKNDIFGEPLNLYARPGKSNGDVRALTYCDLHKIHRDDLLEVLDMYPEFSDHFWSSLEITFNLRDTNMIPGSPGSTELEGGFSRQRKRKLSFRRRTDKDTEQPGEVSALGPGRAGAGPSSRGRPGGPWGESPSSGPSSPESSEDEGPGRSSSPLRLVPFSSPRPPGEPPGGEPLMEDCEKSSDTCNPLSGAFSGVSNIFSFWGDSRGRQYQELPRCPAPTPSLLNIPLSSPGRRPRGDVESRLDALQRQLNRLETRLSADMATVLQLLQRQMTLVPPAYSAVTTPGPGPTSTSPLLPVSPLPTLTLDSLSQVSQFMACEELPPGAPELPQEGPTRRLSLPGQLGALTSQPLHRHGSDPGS
Take `COc1ccc(C2C3=C(CC(C)(C)CC3=O)Nc3n[nH]c(C)c32)cc1` (stereo not shown): the “hERG current change (%, negative = inhibition) at 10uM” value is recorded as -11.8%.
`CC(NC(=O)COc1ccccc1)C(=O)OCC(=O)c1cc2ccccc2o1` (stereo not shown): the “hERG current change (%, negative = inhibition) at 10uM” value is given as 13.6%.
Regarding `CC(=O)N1CCC2(CC1)C(C#N)=C(N)Oc1n[nH]c(CSc3ccc(C)cc3)c12`, the “hERG current change (%, negative = inhibition) at 10uM” value was -4.58%.
Consider `Cc1ccc(CNCC2CCCO2)s1.Cl` (stereo not shown), for which the “hERG current change (%, negative = inhibition) at 10uM” value is recorded as 2.71%.
Take `CC1CCN(C(=O)CN(C)S(=O)(=O)c2cccc3nsnc23)CC1`: the “hERG current change (%, negative = inhibition) at 10uM” value was -7.1%.
With `CS(=O)(=O)Nc1ccc(C(=O)N2CCN(c3ccccc3)CC2)cc1`, the “hERG current change (%, negative = inhibition) at 10uM” value is -61.9%.
The result for `Cc1nn(C(C)C(=O)NCCc2ccccc2)c(=O)c2cc3occc3n12` (stereo not shown) reads 1.16%; that for `CCc1ccc(Nc2nnc(SC3CCOC3=O)s2)cc1` (stereo not shown), -8.96%.
`C/C(=N\OCC(=O)Nc1ccc(Br)cc1)c1cccs1`: the “hERG current change (%, negative = inhibition) at 10uM” value is reported as -10.5%.
As for `O=C(CN(C1CCCCC1)S(=O)(=O)c1ccc(F)cc1)NC1CC1`, the “hERG current change (%, negative = inhibition) at 10uM” value is given as -8%.
Take `CCN(C(=O)CSc1nnc(NC2CCCCC2)s1)C1CCS(=O)(=O)C1` (stereo not shown): the “hERG current change (%, negative = inhibition) at 10uM” value is listed as -2.14%.
On to `COc1ccc(CN2CCN(c3ccccc3OC)CC2)cc1OC.O=C(O)C(=O)O`, for which the “hERG current change (%, negative = inhibition) at 10uM” value was -57.9%.
In the case of `CC(=O)Nc1ccc(S(=O)(=O)Nc2nc3ccccc3nc2N2CCCC2)cc1`, the “hERG current change (%, negative = inhibition) at 10uM” value was -8.01%.
For `Cc1ccc(C)n1CCN1CCN(C(=O)c2ccc(Cl)cc2)CC1`, the “hERG current change (%, negative = inhibition) at 10uM” value is -50.3%.
In the case of `COC(=O)Cc1[nH]nc2c1C(c1cc(OC)c(OC)c(OC)c1)C(C#N)=C(N)O2` (stereo not shown), the “hERG current change (%, negative = inhibition) at 10uM” value is listed as 1.31%.
For the molecule `N#CCCn1nc(Cc2cccc3ccccc23)c(C#N)c1N`, the “hERG current change (%, negative = inhibition) at 10uM” value is given as -7.98%.
In the case of `CCC1CCCCN1CCCNC(=O)c1ccc2c(=O)n(Cc3ccc(OC)cc3)c(=O)[nH]c2c1` (stereo not shown) it was -13.8%; in that of `CC(C)NC(=O)N1CCC(n2nccc2NC(=O)CCOc2ccccc2)CC1`, 5.85%.
Regarding `O=C(NN1C(=O)C2C3C=CC(C4CC34)C2C1=O)c1cccc(Br)c1` (stereo not shown), the “hERG current change (%, negative = inhibition) at 10uM” value was found to be 9.46%.
On to `O=C(NCc1ccc(C(F)(F)F)cc1)C1CC(c2c(Cl)cccc2Cl)=NO1` (stereo not shown), for which the “hERG current change (%, negative = inhibition) at 10uM” value was 0.629%.
With `COc1ccc([N+](=O)[O-])cc1NS(=O)(=O)c1cc(C(=O)O)ccc1OC`, the “hERG current change (%, negative = inhibition) at 10uM” value is listed as 17.3%.
On to `COc1cccc(CN(C)C(=O)CC23CC4CC(CC(C4)C2)C3)c1OC`, for which the “hERG current change (%, negative = inhibition) at 10uM” value is -43.7%.
In the case of `COc1cc(NC(=O)CN2C(=O)NC3(CCOc4ccccc43)C2=O)cc(OC)c1` (stereo not shown) it was -3.2%; in that of `CN(C)C(=O)C(=O)c1cccn1-c1ccccc1C#N`, -3.47%.
For the molecule `O=C(Nc1ccccc1Cl)c1cc(S(=O)(=O)N2CCCC(C(=O)O)C2)ccc1F` (stereo not shown), the “hERG current change (%, negative = inhibition) at 10uM” value was found to be 3.43%.
Turning to `CS(=O)(=O)N1CCN(c2ccc(NC(=O)COc3ccccc3)cc2)CC1`, the “hERG current change (%, negative = inhibition) at 10uM” value was found to be 0.0465%.
For the molecule `CN1CCN(c2ccc(NC(=O)c3cccc(OCc4ccccc4)c3)cc2)CC1`, the “hERG current change (%, negative = inhibition) at 10uM” value was -8.95%.
As to `CC(C)CC(=O)NC(=S)NNC(=O)c1ccc(NC(=O)C2CCCCC2)cc1`, the “hERG current change (%, negative = inhibition) at 10uM” value is on record as 4.66%.
As for `CCN(CC(=O)Nc1cc(Cl)ccc1C)C(=O)Cn1c(=O)cnc2ccccc21`, the “hERG current change (%, negative = inhibition) at 10uM” value is given as -46.5%.
In the case of `COc1cc(C2C(C#N)=C(N)Oc3cc(O)ccc32)cc(OC)c1OC` (stereo not shown) it was 4.91%; in that of `CCCC(=O)c1cc(F)c(N2CCN(S(=O)(=O)c3ccccc3)CC2)cc1C`, 13.2%; in that of `O=C(Cn1nnc2ccccc2c1=O)N[C@H](C(=O)O)c1ccccc1`, 22%.
Regarding `Cc1ccc(C(=O)OCC(=O)Nc2cccc(S(=O)(=O)N3CCOCC3)c2)o1`, the “hERG current change (%, negative = inhibition) at 10uM” value is given as -53.1%.
In the case of `O=C(Nc1ccn(Cc2c(F)c(F)cc(F)c2F)n1)c1cccc(Cn2cc([N+](=O)[O-])cn2)c1` it was -2.12%; in that of `Cn1c(=O)c2c(nc(N/N=C/c3c(O)n(-c4ccccc4)c(=S)[nH]c3=O)n2C)n(C)c1=O`, 8.04%; in that of `CCCc1cc(=O)n2nc(N3CCC(C(=O)NCc4ccco4)CC3)sc2n1`, -44.4%.
Consider `O=C(COC(=O)CCCc1c[nH]c2ccccc12)Nc1ccc2c(c1)OCO2`, for which the “hERG current change (%, negative = inhibition) at 10uM” value is 15.1%.
In the case of `COc1ccc(N(C)S(=O)(=O)c2cccc(C(=O)NCC(c3ccco3)N3CCCC3)c2)cc1` (stereo not shown) it was -33.9%; in that of `O=C(Nc1nc(-c2ccc(F)c(F)c2)cs1)Nc1ccc(F)cc1F`, 12.1%.
In the case of `CS(=O)(=O)N(CC(=O)N1CCCCCC1)c1ccc(Cl)cc1` it was 2.37%.
Take `Cc1ccccc1-c1nc(CS(=O)CC(=O)NCCN2CCOCC2)c(C)o1` (stereo not shown): the “hERG current change (%, negative = inhibition) at 10uM” value was found to be 3.48%.
Turning to `Cc1ccc(S(=O)(=O)NCc2ccccn2)c(C)c1`, the “hERG current change (%, negative = inhibition) at 10uM” value is -4.7%.
For `COc1cccc(CN2CCc3ccc(NC(=O)CCc4ccc(C)cc4)cc3C2)c1O`, the “hERG current change (%, negative = inhibition) at 10uM” value is recorded as -52.2%.

The record behind these values is paper PMC4336329 (PLoS ONE, 2015).
